{
  "source": "PubChem BioAssay AID2675",
  "about": "(National Center for Advancing Translational Sciences (NCATS), 2010)",
  "note": "The campaign covered roughly 280,000 compounds. About 100 (0.036%) were called active. Inconclusive results, whose numbers are uncertain, are shown with a selection of clear calls. Calls follow the shape of the dose curve; as a rule, active = well fitted inhibition curve with a large enough effect in the signal ratio, with a control signal flat (not every such curve was filed as active); inconclusive = small, poorly fitted or top-dose-only effect, or effect the other way, or a change in a side signal; inactive = no such curve, though single readings can be large or run the other way; the % refers to the signal ratio. Potencies of inconclusive entries are doubtful fits and often do not repeat. “Side channel” marks fits to a control or component signal instead of the main read-out. % is scaled to controls: 0 for no effect and ±100 for the full control effect; potency is read from the fitted curve at half-maximal effect; tags tell the direction and shape of the fitted curve or compound fluorescence and quenching.",
  "data": [
    {"target": "Muscleblind-like protein 1 (Homo sapiens) (UniProt Q9NR56)", "sequence (Q9NR56 whole entry, looked up)": "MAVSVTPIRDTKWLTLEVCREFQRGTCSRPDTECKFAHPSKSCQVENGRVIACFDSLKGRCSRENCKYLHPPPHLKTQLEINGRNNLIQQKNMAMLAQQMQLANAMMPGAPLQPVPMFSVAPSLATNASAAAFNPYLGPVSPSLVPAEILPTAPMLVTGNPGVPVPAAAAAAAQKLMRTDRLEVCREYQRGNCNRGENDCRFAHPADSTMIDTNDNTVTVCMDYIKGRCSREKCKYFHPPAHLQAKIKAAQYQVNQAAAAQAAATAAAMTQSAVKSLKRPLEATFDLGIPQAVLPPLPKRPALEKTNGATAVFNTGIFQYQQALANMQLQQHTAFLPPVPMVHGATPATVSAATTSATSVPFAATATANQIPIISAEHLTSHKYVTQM", "assay": "qHTS Assay for Inhibitors of MBNL1-poly(CUG) RNA binding", "conditions": "TR-FRET MBNL1-His/biotin-(CUG)12 binding, 665/545 ratio; activity change, negative = inhibition: at 57.5 µM (top of the series)", "in_short": "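MBNL1-His + Biotin-(CUG)12, cpd titration 92 nM–58 uM; Tb anti-His Ab 0.055 ng/ul, SA-XL665 5 nM (final); 60 min RT; ratiometric 665/545 nm, Ex 340 nm; normalized to buffer and full-complex controls.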", "values": [
      {"smiles": "CC(=O)NC1=C(Nc2ccc(N(C)C)cc2)C(=O)c2ccccc2C1=O", "Potency": "inconclusive: 11.2 µM [quencher, side channel, partial curve]"},
      {"smiles": "C=CCSc1nc2c(c(=O)[nH]c(=O)n2C)n1Cc1ccccc1", "Potency": "inactive"},
      {"smiles": "CN(C)CCN(Cc1ccccc1)S(=O)(=O)c1ccc(-c2ccc(=O)[nH]n2)s1", "Potency": "inconclusive: 17.8 µM [quencher, side channel, partial curve]"},
      {"smiles": "COc1cccc(-n2nc(C#N)c(Cl)cc2=O)c1", "Potency": "inconclusive: 10 µM [quencher, side channel, partial curve]"},
      {"smiles": "CCN(CC(=O)NCc1ccc(F)cc1)C(=O)/C=C/c1cccs1", "Potency": "inconclusive: 28.2 µM [quencher, side channel, single point]"},
      {"smiles": "CCOc1ccc(Nc2ccc(N3C(=O)CCC3=O)cc2[N+](=O)[O-])cc1", "Potency": "inconclusive: 3.16 µM [quencher, side channel, full curve]"},
      {"smiles": "CC(=O)NCCc1ccc(S(=O)(=O)Nc2cccnc2)cc1", "Potency": "inactive"},
      {"smiles": "C=CCc1ccccc1OCCCCN1CCCC1", "Potency": "inactive"},
      {"smiles": "Oc1cccc2cc3cccc(O)c3c(O)c12", "Potency": "inconclusive: 39.8 µM [quencher, side channel, single point]"},
      {"smiles": "CN(C)c1ccc(/C=C/c2ccc3ccccc3[n+]2C)cc1", "Potency": "inconclusive: 4.47 µM [quencher, side channel, partial curve]"},
      {"smiles": "COc1cc([N+](=O)[O-])ccc1NC(=O)C[n+]1cccc(C)c1", "Potency": "inconclusive: 17.8 µM [quencher, side channel, partial curve]"},
      {"smiles": "Cc1cccc(C(=O)N=c2c(C#N)cc3c(=O)n4cccc(C)c4nc3n2Cc2ccco2)c1", "Potency": "inconclusive: 3.55 µM [quencher, side channel, partial curve]"},
      {"smiles": "CCn1nc(NC(C)=O)c2cc3ccc(C)cc3nc21", "Potency": "inconclusive: 12.6 µM [quencher, side channel, partial curve]"},
      {"smiles": "O=C(Nc1cccc(Br)c1)c1ccccc1-c1ccccc1", "Potency": "inconclusive: 0.316 µM [fluorescent, side channel, full curve]"},
      {"smiles": "COCCCN1C(=O)C(=O)/C(=C(/O)c2ccc(S(=O)(=O)N3CCCCC3)cc2)C1c1ccc(O)c(OC)c1", "note": "(stereo unspecified)", "Potency": "inconclusive: 11.2 µM [quencher, side channel, partial curve]"},
      {"smiles": "Cc1ccsc1/C=C(\\C#N)C(=O)NCCCN1CCOCC1", "Potency": "inconclusive: 15.8 µM [quencher, side channel, partial curve]"},
      {"smiles": "CCNc1nc(NC(C)C)nc(Oc2ccc(/C=N/O)cc2)n1", "Potency": "inactive"},
      {"smiles": "Oc1ccc(C=Nc2cccc3ncccc23)c(O)c1", "Potency": "inconclusive: 12.6 µM [quencher, side channel, partial curve]"},
      {"smiles": "Cc1ccc(Nc2ccc([N+](=O)[O-])nc2[N+](=O)[O-])cc1", "Potency": "inconclusive: 10 µM [quencher, side channel, partial curve]"},
      {"smiles": "CCOC(=O)COn1c(=O)c(-c2ccc(OC)cc2)[n+]([O-])c2ccccc21", "Potency": "inconclusive: 14.1 µM [quencher, side channel, partial curve]"},
      {"smiles": "COc1cc(C(=O)NCCC(C)C)c([N+](=O)[O-])cc1OC", "Potency": "inconclusive: 12.6 µM [quencher, side channel, partial curve]"},
      {"smiles": "O=C1/C(=C\\c2c(NCCOCCO)nc3ccccn3c2=O)SC(=S)N1Cc1ccco1", "Potency": "inactive"},
      {"smiles": "CCN1C(=O)c2cccc3c(S(=O)(=O)Nc4ccccc4O)ccc1c23", "Potency": "inconclusive: 10 µM [quencher, side channel, partial curve]"},
      {"smiles": "COc1ccc(C(CNC(=O)c2ccc(NS(=O)(=O)c3cccc([N+](=O)[O-])c3)cc2)N2CCOCC2)cc1", "note": "(stereo unspecified)", "Potency": "inconclusive: 11.2 µM [quencher, side channel, partial curve]"},
      {"smiles": "O=C(Nc1ccccn1)C1CCN(S(=O)(=O)c2cccc3nonc23)CC1", "Potency": "inconclusive: 15.8 µM [quencher, side channel, partial curve]"},
      {"smiles": "CC(=O)Nc1cccc(NC(=O)c2ccc(C)c([N+](=O)[O-])c2)c1", "Potency": "inconclusive: 28.2 µM [quencher, side channel, single point]"},
      {"smiles": "O=C(O)CNS(=O)(=O)c1ccc2c3c(cccc13)C(=O)N2", "Potency": "inconclusive: 20 µM [quencher, side channel, partial curve]"},
      {"smiles": "CC(C)(C)c1cc(C(=O)N/N=C/c2ccc(-c3ccccc3[N+](=O)[O-])o2)n[nH]1", "Potency": "inconclusive: 20 µM [quencher, side channel, partial curve]"},
      {"smiles": "O=C(Nc1cccc([N+](=O)[O-])c1)c1ccc2nc(N3C(=O)CCC3=O)sc2c1", "activity change, negative = inhibition": "inconclusive: 30.9% [phenotype inactive]"},
      {"smiles": "CC(C(=O)Nc1ccccc1Cl)c1ccc([N+](=O)[O-])cc1", "note": "(stereo unspecified)", "Potency": "inconclusive: 25.1 µM [quencher, side channel, partial curve]"},
      {"smiles": "Cn1ccnc1Sc1cc(NCCCO)c([N+](=O)[O-])c2nonc12", "Potency": "inconclusive: 15.8 µM [quencher, side channel, partial curve]"},
      {"smiles": "O=C(COc1ccccc1)Nc1ccc2[nH]ncc2c1", "Potency": "inactive"},
      {"smiles": "COc1ccc(NC(=S)NC(NC(C)=O)C(Cl)(Cl)Cl)c([N+](=O)[O-])c1", "note": "(stereo unspecified)", "Potency": "inconclusive: 15.8 µM [activator, single point]"},
      {"smiles": "CCN(CCNC(=O)c1ccc2nc(-c3ccccc3NC(C)=O)c(=O)[nH]c2c1)c1ccccc1", "Potency": "inconclusive: 15.8 µM [quencher, side channel, partial curve]"},
      {"smiles": "CCOC(=O)c1c(C)[nH]c(C)c1C(=O)COc1ncnc2cc([N+](=O)[O-])ccc12", "Potency": "inconclusive: 15.8 µM [quencher, partial curve]"},
      {"smiles": "CCCCNc1c([N+](=O)[O-])cc(C)cc1[N+](=O)[O-]", "Potency": "inconclusive: 14.1 µM [quencher, side channel, partial curve]"},
      {"smiles": "CN1/C(=C\\P(=O)(N(C)C)N(C)C)C(C)(C)c2ccccc21", "Potency": "inconclusive: 39.8 µM [quencher, single point]"},
      {"smiles": "O=C(/C=C/c1ccc([N+](=O)[O-])cc1)NCCc1ccccc1", "Potency": "inconclusive: 3.55 µM [quencher, side channel, full curve]"},
      {"smiles": "COc1ccc(N2C(=O)C(Cl)=C(N3CCCC3)C2=O)cc1", "Potency": "inconclusive: 14.1 µM [quencher, side channel, partial curve]"},
      {"smiles": "COc1ccc2[nH]c(C)c(CCNC(=S)Nc3cccc(C)c3)c2c1", "Potency": "inconclusive: 251 µM [inhibitor, partial curve, poor fit]"},
      {"smiles": "COc1ccc(/C=N/NC(=O)CCn2cnc(-c3ccccc3)c2-c2ccccc2)cc1OC", "Potency": "inactive"},
      {"smiles": "Nc1c([N+](=O)[O-])cnnc1-c1ccccc1", "Potency": "inconclusive: 5.01 µM [quencher, side channel, partial curve]"},
      {"smiles": "CCNS(=O)(=O)c1ccc(NC(=O)Nc2cccc(OC)c2)cc1", "Potency": "inconclusive: 79.4 µM [inhibitor, partial curve, poor fit]"},
      {"smiles": "Cc1ccc(N=Nc2c(C)[nH]n(C(N)=S)c2=O)cc1C", "Potency": "inconclusive: 1.26 µM [quencher, side channel, full curve]"},
      {"smiles": "COc1ccccc1N(CC(=O)NC1CCCC1)C(=O)c1csnn1", "Potency": "inconclusive: 31.6 µM [fluorescent, side channel, single point]"},
      {"smiles": "COc1ccc2ccccc2c1C1NC(=O)NC(C)=C1[N+](=O)[O-]", "note": "(stereo unspecified)", "Potency": "inconclusive: 7.08 µM [quencher, side channel, partial curve]"},
      {"smiles": "Cc1ccc(S(=O)(=O)N(C)CC(=O)O/N=C(\\N)c2cccc([N+](=O)[O-])c2)cc1", "Potency": "inconclusive: 17.8 µM [quencher, side channel, partial curve]"},
      {"smiles": "Cc1ccccc1OCC(=O)N/N=C/c1cccc(Oc2ccc([N+](=O)[O-])cc2[N+](=O)[O-])c1", "Potency": "inconclusive: 2.82 µM [quencher, side channel, partial curve, poor fit]"},
      {"smiles": "CN(C)c1ccc(C(c2ccc(N(C)C)cc2)c2ccc([N+](=O)[O-])cc2)cc1", "Potency": "inactive"},
      {"smiles": "CCOC(=O)CNC(=O)C1CCC(CNS(=O)(=O)c2cccc3nsnc23)CC1", "note": "(stereo unspecified)", "Potency": "inconclusive: 12.6 µM [quencher, side channel, partial curve]"},
      {"smiles": "COc1ccc(NC(=O)/C=C/c2cc(OC)c(OC)c(OC)c2)cn1", "Potency": "inconclusive: 25.1 µM [quencher, side channel, single point]"},
      {"smiles": "NC(=O)C(CC(=O)O)NC(=O)[C@@H]1CCCNc2c(I)cc([N+](=O)[O-])cc2C(=O)N[C@@H](CO)C(=O)N[C@@H](Cc2ccc(O)cc2)C(=O)N1", "note": "(stereo partly specified)", "Potency": "inconclusive: 17.8 µM [quencher, side channel, partial curve, poor fit]"},
      {"smiles": "Cc1noc(C)c1COc1cccc(C(=O)N2CCN(C/C=C/c3ccccc3)CC2)c1", "Potency": "inconclusive: 10 µM [inhibitor, single point]"},
      {"smiles": "Fc1ccc(-c2nc3nc4ccccc4nc3n2Cc2ccco2)cc1", "Potency": "inconclusive: 2.82 µM [quencher, side channel, full curve, poor fit]"},
      {"smiles": "Nc1cc2c(cc1[N+](=O)[O-])OCCOCCOCCO2", "Potency": "inconclusive: 14.1 µM [quencher, side channel, partial curve]"},
      {"smiles": "O=C(CSC1CS(=O)(=O)c2cc([N+](=O)[O-])ccc21)NNC(=O)c1ccccc1", "note": "(stereo unspecified)", "Potency": "inconclusive: 17.8 µM [quencher, side channel, partial curve]"}
    ]}
  ]
}
